Results published in PubChem BioAssay AID485344 (National Center for Advancing Translational Sciences (NCATS), 2010).
About 6,900 (2%) of roughly 340,000 compounds were called active. Rule as the data show it: active = inhibition above about 30%; inactive = below that, where a call was filed. Only a part is listed here, and it is no random draw. Where no call is shown, the source filed none.

biological target: D(2) dopamine receptor (Homo sapiens) (UniProt P14416); test: HTS Assay for Allosteric Antagonists of the Human D2 Dopamine Receptor: Primary Screen for Antagonists; details: HEK293 TREx D2 cells, calcium flux, dopamine EC80; at 10 µM; stronger effect = higher value; also: 0% is about no effect
Excerpt: NIH Chemical Genomics Center [NCGC] NIH Molecular Libraries Probe Centers Network [MLPCN] MLPCN Grant: NS064831-01 Assay Submitter (PI): David Sibley Dopamine receptors (DARs) are involved in the etiology and/or therapy of a number of neuropsychiatric and endocrine disorders. For instance, all receptor-based antiparkinsonian drugs work via stimulating the D2 DAR subtype whereas all FDA-approved antipsychotic agents are antagonists of this receptor. […] There are three different types of allosteric modulators that we are seeking, two of which will stimulate or augment receptor signaling, allosteric agonists and potentiators, while the third, allosteric antagonists, will attenuate receptor signaling. The present primary screening assay measures compound antagonism after an EC80 addition of dopamine by tracking calcium flux in a […], inducible Hek293 Trex D2 cell line.
Freshly passaged cells are plated in 1536 well black, clear bottom plates at a density of 4000 cells/well in 3 ul of complete media containing 1x tetracycline inducer. After an overnight incubation at 30 C in 5% CO2, cells are loaded with 2 ul of the no wash Calcium Assay Kit (ABD Bioquest) and incubated at room temperature for 30 to 90 minutes. Agonist read: A 10 cycle (1 second/cycle) baseline measurement is taken and then the FDSS online 1536 pintool delivers 23 nl of compound library (as well as dopamine controls) to the plate. The plate is measured for kinetically at 1 cycle/sec for 180 seconds. Following the 180 second read, 1 ul of an EC80 (negative modulation assay) is delivered by an onboard pipette head. Measurements are taken kinetically for an additional 180 seconds.

Chain of UniProt P14416 (P14416 whole entry, looked up): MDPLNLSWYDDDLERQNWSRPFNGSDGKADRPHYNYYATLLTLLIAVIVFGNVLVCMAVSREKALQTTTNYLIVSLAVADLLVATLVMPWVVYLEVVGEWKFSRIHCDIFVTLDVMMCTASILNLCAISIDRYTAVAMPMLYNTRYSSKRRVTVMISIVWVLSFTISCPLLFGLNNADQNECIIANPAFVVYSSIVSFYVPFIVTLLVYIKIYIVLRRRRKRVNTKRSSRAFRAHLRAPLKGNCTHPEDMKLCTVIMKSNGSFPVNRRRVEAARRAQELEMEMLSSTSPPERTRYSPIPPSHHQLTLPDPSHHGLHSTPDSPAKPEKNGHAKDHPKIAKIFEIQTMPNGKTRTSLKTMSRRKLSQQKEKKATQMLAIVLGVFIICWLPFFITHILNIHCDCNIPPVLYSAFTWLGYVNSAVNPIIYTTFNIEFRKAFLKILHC

Row | SMILES | inhibition
1 | CC(=O)c1ccc(Nc2cc(C)nc3nc(Cc4ccc(Cl)cc4)nn23)cc1 | 5.31%
2 | CCc1ccc2oc(C(=O)Nc3cc(C)ccc3C)cc(=O)c2c1 | 13.5%
3 | O=C(Nc1cc2c(cc1C(=O)c1ccccc1Cl)OCCO2)c1ccccc1 | -3.2%
4 | CC(C)c1nn2c(=O)cc(COC(=O)c3ccccc3NC(=O)C3CCCCC3)nc2s1 | 6.41%
5 | CC1CCC(Nc2nc3c(-c4cccc(C(F)(F)F)c4)nnn3c3ccccc23)CC1 (stereo unspecified) | -4.26%
6 | Cc1ccc(C)c(N2CCN(C(=O)c3ccc4c(c3)N(Cc3ccc(F)cc3)C(=O)c3ccccc3S4=O)CC2)c1 (stereo unspecified) | -4.79%
7 | CC(C)OC(=O)c1c(NC(=O)C2c3ccccc3Oc3ccccc32)sc2c1CCCC2 | 0.214%
8 | Cc1cc(C)nc(N/N=C/c2ccccc2)n1 | active: 44.5%
9 | O=C(c1cccs1)N1CCN(Cc2cccc([N+](=O)[O-])c2)CC1 | active: 38.1%
10 | COc1ccccc1-c1noc(CCC(=O)Nc2ccc(C)cc2C)n1 | -3.34%
11 | Cc1ccc(NC(=O)C2CCCN(S(=O)(=O)c3cn(C(C)C)cn3)C2)c(C)c1 (stereo unspecified) | 13.3%
12 | CCCOc1ccc(CNC(=O)c2ccc(-n3c(C)cc4c3CCC(C)C4)cc2)cc1 (stereo unspecified) | 8.75%
13 | Cc1cc2oc(C(=O)Nc3ccc(S(=O)(=O)Nc4ncccn4)cc3)cc(=O)c2cc1C | -1.04%
14 | Cc1ccc(NC(=O)Cn2ccn(-c3ccccc3)c(=O)c2=O)cc1 | 0.478%
15 | CCN(C(=O)CSc1nc2ccccc2[nH]1)c1ccccc1 | 5.5%
16 | Cc1ccc(Cn2cc(S(=O)(=O)c3cccc(Cl)c3)c(=O)c3cc(F)c(N4CCOCC4)cc32)cc1 | 3.24%
17 | CCOc1ccc(C2NC(=O)c3c(COC)cc(C)nc3N2Cc2ccccc2)cc1OC (stereo unspecified) | -5.69%
18 | COc1ccccc1C(=O)Nc1cc2c(cc1N1CCCC1)n(C)c(=O)c(=O)n2C | -1.11%
19 | COc1cccc(NC(=O)C2=C(C)C(=O)OC23CCN(C(C)=O)CC3)c1 | -22.4%
20 | COc1cc2c(cc1OC)C(COc1ccc3c(C)cc(=O)oc3c1)N(C(=O)c1cc(Cl)ccc1OC)CC2 (stereo unspecified) | -9.12%
21 | CCC(=O)N1c2ccc(S(=O)(=O)NCc3ccc(F)cc3)cc2CC1C (stereo unspecified) | -2.34%
22 | CCN(CC)C(=O)Cn1nnc2sc(-c3ccccc3)cc2c1=O | -18.1%
23 | Cc1ccc(CN2CCSc3ccc(C(=O)NCC(C)c4ccccc4)cc32)cc1 (stereo unspecified) | -1.51%
24 | COC(=O)CN1C(=O)CSc2ccc(S(=O)(=O)Nc3cccc(C)c3C)cc21 | 2.14%
25 | COc1cccc(OCCSc2nc(C)c(Cc3ccccc3)c(=O)[nH]2)c1 | -6.71%
26 | Cc1ccc(N(C)C(=O)C2CCN(S(=O)(=O)c3c(C)noc3/C=C/c3c(C)cc(C)cc3C)CC2)cc1 | -27.4%
